IC50 and EC50 data for one molecule are collected here from US20250270318A1 (AB THERAPEUTICS, published 2025).

One test concerns the target T1, biotinylated LAG-3 (UniProt P18627 23-450, limits assumed, biotinylated).
T1 construct: Construct not described; also called LAG-3 probe
T1 sequence (looked up): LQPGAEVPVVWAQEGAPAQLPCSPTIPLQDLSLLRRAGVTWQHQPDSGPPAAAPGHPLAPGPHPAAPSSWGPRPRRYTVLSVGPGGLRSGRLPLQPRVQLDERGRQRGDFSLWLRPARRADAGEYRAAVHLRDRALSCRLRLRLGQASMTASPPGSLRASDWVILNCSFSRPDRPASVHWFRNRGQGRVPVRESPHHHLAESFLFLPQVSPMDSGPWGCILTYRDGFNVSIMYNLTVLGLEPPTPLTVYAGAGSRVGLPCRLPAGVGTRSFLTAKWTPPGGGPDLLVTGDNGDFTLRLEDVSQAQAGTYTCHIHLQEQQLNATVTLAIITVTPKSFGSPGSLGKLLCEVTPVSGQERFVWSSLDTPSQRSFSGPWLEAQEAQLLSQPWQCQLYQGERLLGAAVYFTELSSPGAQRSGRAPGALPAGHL
Kind of test: flow cytometry blocking assay: biotinylated LAG-3 binding to MHC-II+ Raji cells (MFI), streptavidin detection. The method, then: (§1) 10⁵ cells (RKO for PD-1/PD-L1 blocking, Raji for MHC-II/LAG-3 blocking, and Jurkat TIGIT for CD155/TIGIT blocking) were distributed per well in 0.1 ml medium to 96-well V-bottom plate in duplicate. Supernatants were discarded after spinning down cells at 300 g, 5 min at room temperature. […] After incubation, cells were washed by adding 0.15 ml cell staining buffer (PBS containing 1% FBS and 0.1% NaN3) and centrifugation at 300 g, 5 min at room temperature. Supernatants were discarded and cells were washed one more time with 0.15 ml of staining buffer. Cells were subsequently resuspended in […] of 1:500 Streptavidin-PE and incubated at RT for 30 min. Cells were spun down after 0.15 ml cell staining buffer was added, resuspended in 0.12 ml of cell staining buffer, and analyzed by flow cytometry on a NovoCyte flow cytometer (Agilent).

The target in test [1] is T2, TIGIT (on TIGIT-transfected Jurkat cells) (UniProt Q495A1 22-244, limits assumed).
T2 construct: whole, on cells; also called Jurkat TIGIT; cell-associated TIGIT
T2 sequence (looked up): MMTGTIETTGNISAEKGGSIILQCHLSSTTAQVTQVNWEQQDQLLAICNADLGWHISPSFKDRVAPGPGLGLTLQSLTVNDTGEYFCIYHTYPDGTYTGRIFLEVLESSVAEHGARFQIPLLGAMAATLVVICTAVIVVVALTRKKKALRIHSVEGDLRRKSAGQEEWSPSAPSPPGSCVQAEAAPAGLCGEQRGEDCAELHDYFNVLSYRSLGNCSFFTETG
Put plainly: flow cytometry blocking assay: biotinylated CD155 binding to Jurkat TIGIT cells (MFI), streptavidin detection. The method, then: as §1

Test [2] has as its target T2, TIGIT (on TIGIT-transfected Jurkat …). Kind of test: flow cytometry, antibody binding to Jurkat TIGIT cells (MFI), fluorescent anti-human IgG Fc secondary. The method, then: 10⁵ cells (RKO, Jurkat TIGIT, and Jurkat LAG-3 for testing antibody binding to PD-L1, TIGIT, and LAG-3, respectively) per well were distributed in 0.1 ml medium to 96-well V-bottom plates. Supernatants were discarded after spinning down cells at 300 g, 5 min at room temperature. Cells were resuspended in […] of a serial dilution of antibodies and incubated for 1 h at room temperature. After incubation, cells were washed by adding 0.15 ml cell staining buffer (PBS containing 1% FBS and 0.1% NaN3) and centrifugation at 300 g, 5 min at room temperature. Supernatants were discarded and cells were washed one more time with 0.15 ml of staining buffer. Cells were subsequently resuspended in […] of secondary antibody (Alexa Fluor 647-conjugated AffiniPure Goat Anti-Human IgG, Fcγ Fragment Specific. Used at 1:500) and incubated at RT for 30 min. Cells were spun down after 0.15 ml cell staining buffer was added, resuspended in 0.12 ml of cell staining buffer, and analyzed by flow cytometry on a NovoCyte flow cytometer (Agilent).

B1: PD-L1/LAG3/TIGIT TsAb (other)
chain: EVQLVESGGGLVQPGGSLRLSCAASSRTFSRYAMGWFRRAPGKEREFVASISWSGGGLEYAESVKGRFTISRDGSKNTVYLQMNSLAAEDTAVYYCAADPWGSLVNGAVRYEYWGQGTLVTVSSGGGGSGGGGSQVQLVESGGGLVQAGGSLRLSCAASGLPFWDYAIGWYRQAPGKEREGVSCITNSGSTYYADSVKGRFTISSDIAKNTVFLQMNSLKPEDTAVYSCAANGWGDCSGSYRYTPYEYDYWGQGTLVTVSSGGGGS[about 350 residues with a human IgG1 Fc not given here]
notes: also called PDL1×TIGIT×LAG3 tri-specific antibody; TIGIT/LAG3/PD-L1 trispecific antibody
On to B1, for which the IC50 with biotinylated LAG-3 came to 3.78 nM; in test [1] it was 2.41 nM. Moreover, the EC50 in test [2] was determined as 4.77 nM.
